Where “and” joins values, the source holds several entries; their conditions need not be identical. Equal values may be shown once. About 16,000 (4.4%) of roughly 360,000 compounds were called active. The shares of active, inactive and inconclusive entries below differ from those in the screen. Calls come from the whole dose curve; as a rule, active = well fitted inhibition curve with a large enough effect; inconclusive = small, poorly fitted or top-dose-only effect; inactive = no such curve, though single readings can be large or run the other way. Where the call is inconclusive, the potency comes from a doubtful curve fit.
What follows are molecules tested against Bromodomain adjacent to zinc finger domain protein 2B (Homo sapiens) (UniProt Q9UIF8) (assay: qHTS Assay for Inhibitors of BAZ2B). Settings: AlphaScreen BAZ2B-H3K14Ac peptide displacement; activity change, negative = inhibition: at 114 µM (top of the series) unless noted.
Chain of UniProt Q9UIF8 (Q9UIF8 whole entry, looked up, the tested form may be a part): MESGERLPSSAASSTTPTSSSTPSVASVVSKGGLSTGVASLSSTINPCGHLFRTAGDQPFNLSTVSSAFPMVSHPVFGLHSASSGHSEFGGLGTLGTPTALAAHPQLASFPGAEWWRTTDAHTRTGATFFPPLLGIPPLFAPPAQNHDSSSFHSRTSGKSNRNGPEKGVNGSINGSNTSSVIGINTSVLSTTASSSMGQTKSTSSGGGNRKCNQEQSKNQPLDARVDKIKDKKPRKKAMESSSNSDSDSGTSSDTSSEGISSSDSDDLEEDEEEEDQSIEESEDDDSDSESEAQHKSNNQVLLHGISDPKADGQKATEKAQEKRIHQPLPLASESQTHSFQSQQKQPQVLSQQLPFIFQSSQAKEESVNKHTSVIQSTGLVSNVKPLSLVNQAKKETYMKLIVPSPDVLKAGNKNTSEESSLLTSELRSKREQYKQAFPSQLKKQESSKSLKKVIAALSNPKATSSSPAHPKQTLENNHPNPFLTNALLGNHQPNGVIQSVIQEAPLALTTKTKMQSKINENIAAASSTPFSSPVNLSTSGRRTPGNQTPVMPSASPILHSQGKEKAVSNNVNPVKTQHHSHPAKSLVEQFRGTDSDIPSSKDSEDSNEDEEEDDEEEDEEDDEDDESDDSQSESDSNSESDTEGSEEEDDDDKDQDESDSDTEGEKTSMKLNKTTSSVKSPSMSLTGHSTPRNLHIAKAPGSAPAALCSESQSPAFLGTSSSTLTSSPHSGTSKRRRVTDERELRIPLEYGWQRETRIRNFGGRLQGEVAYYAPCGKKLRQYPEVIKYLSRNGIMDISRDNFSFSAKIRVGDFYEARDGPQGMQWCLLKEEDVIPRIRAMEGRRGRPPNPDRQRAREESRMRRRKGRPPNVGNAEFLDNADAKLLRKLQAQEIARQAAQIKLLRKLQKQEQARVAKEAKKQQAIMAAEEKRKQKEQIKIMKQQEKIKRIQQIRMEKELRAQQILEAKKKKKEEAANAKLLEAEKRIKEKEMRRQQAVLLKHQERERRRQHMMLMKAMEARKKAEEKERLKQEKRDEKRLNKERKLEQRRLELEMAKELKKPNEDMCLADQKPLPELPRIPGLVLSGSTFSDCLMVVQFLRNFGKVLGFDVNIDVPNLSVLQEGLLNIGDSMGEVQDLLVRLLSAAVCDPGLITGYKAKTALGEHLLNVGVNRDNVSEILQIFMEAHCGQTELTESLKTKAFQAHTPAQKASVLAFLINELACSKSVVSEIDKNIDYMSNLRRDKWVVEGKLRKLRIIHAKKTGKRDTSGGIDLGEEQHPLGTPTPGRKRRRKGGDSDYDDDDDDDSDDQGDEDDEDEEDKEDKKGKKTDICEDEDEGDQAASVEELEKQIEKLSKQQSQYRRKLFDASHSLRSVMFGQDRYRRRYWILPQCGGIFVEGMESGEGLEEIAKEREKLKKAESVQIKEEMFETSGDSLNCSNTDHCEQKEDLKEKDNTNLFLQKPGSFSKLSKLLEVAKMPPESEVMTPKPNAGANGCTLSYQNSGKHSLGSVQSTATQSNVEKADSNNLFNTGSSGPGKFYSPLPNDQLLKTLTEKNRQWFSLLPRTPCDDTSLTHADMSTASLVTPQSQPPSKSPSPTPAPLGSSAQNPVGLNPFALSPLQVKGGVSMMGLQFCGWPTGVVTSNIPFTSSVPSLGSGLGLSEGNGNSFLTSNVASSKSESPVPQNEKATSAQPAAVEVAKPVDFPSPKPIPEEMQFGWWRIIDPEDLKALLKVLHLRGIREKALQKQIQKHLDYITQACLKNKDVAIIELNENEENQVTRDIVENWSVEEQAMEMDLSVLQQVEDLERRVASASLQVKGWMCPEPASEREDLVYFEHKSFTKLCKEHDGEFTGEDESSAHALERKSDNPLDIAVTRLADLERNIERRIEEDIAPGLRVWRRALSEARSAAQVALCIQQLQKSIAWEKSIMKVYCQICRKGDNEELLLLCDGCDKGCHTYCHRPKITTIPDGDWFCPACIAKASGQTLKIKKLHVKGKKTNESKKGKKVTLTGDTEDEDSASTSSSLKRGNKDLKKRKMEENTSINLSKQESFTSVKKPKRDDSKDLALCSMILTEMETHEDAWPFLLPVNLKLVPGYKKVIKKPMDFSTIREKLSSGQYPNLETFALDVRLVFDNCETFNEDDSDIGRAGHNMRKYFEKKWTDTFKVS
In short: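 Protein-peptide AlphaScreen: BAZ2B 50 nM, b-H3K14Ac 50 nM, 1x PBS pH 7.4 + 0.01% Tween-20. Preincubation 30 min RT; cpd 30 min RT (top 110 uM); beads 20 min RT, light-protected.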
For `Cc1ccc2c(c1)c1nnc(SCC(=O)Nc3ccc(N(C)C)cc3)nc1n2CC(=O)O`, the Potency was inconclusive: 70.8 µM [inhibitor, single point].
`S=C(NCc1ccco1)N1CCC(c2nc3ccccc3o2)CC1` was tested, and the Potency was inconclusive: 70.8 µM [inhibitor, single point].
`CN1CCN(CCC(=O)N/N=C/C=C2\N(C)c3ccccc3C2(C)C)CC1` was tested, and the Potency was inconclusive: 79.4 µM [inhibitor, partial curve].
`Cc1ccc(-c2csc(NC3OC(=O)c4ccccc43)n2)cc1` (centres undefined) was tested, and the Potency was inconclusive: 44.7 µM [inhibitor, partial curve].
For `CCOC(=O)C1=C(CC)OC(N)=C(C#N)C1c1ccsc1` (centres undefined), the Potency was inconclusive: 56.2 µM [inhibitor, partial curve].
`O=C1CC(Nc2ccc(N3CCOCC3)cc2)C(=O)N1CCc1ccccc1` (centres undefined) was tested, and the “activity change, negative = inhibition” value was inactive: -5.29%.
With `CCOC(=O)CN(C(=O)CSc1nnc(CNc2ccc(C)cc2C)n1CC)c1ccccc1` the Potency was inconclusive: 89.1 µM [inhibitor, single point].
`CCOc1ccc(NC(=O)NCc2cccn2C)cc1` was tested, and the Potency was inconclusive: 79.4 µM [inhibitor, partial curve].
`COC(=O)C1=C(C)N(Cc2ccccc2)C(=S)N[C@H]1c1ccc(Br)cc1` was tested, and the Potency was inconclusive: 70.8 µM [inhibitor, single point].
`CCOc1ccc(/C=C2/SC(=S)N(C(C(=O)O)c3ccccc3)C2=O)cc1OCC` (centres undefined) was tested, and the Potency was active: 79.4 µM.
For `CN(Cc1ccccc1)C(=O)Cn1ncc2c3ccccc3n(Cc3cccc(Cl)c3)c2c1=O`, the Potency was inconclusive: 22.4 µM [inhibitor, full curve, poor fit].
`Cc1cccc(NC(=O)CN2CCc3cc4c(cc3C2C)OCCCO4)c1` (centres undefined) was tested, and the Potency was inconclusive: 79.4 µM [inhibitor, single point].
With `Cc1ccc2c(c1)c1nnc(SCC(=O)Nc3cccc(Cl)c3C)nc1n2CC(=O)O` the Potency was active: 50.1 µM.
`O=C1S/C(=C\c2ccc(O)c([N+](=O)[O-])c2)C(=O)N1c1ccccc1Cl` was tested, and the Potency was active: 35.5 µM.
`O=[N+]([O-])c1cccc(/C=N/N2CCN(Cc3ccc(Cl)cc3)CC2)c1` was tested, and the Potency was active: 20 µM.
For `COc1ccccc1C(=O)NC1CCN(C(=O)Nc2ccc(C)cc2)CC1`, the “activity change, negative = inhibition” value was inactive: 4.2%.
With `COC(=O)c1sc2cc(=O)n(-c3cccc(C(F)(F)F)c3)nc2c1O` the Potency was inconclusive: 63.1 µM [inhibitor, partial curve].
With `O=C(NCCCn1ccnc1)c1ccccc1Cl` the “activity change, negative = inhibition” value was inactive: -13.4%.
For `CCOc1ccccc1CNCCN1CCOCC1`, the Potency was inconclusive: 89.1 µM [inhibitor, single point].
For `COc1ccc(C2CC(c3ccc(Br)cc3)=NN2C(=O)c2cccnc2)cc1` (centres undefined), the Potency was inconclusive: 44.7 µM [inhibitor, partial curve].
In the case of `O=[N+]([O-])c1cc(Br)c(OCc2nnc(-c3ccccc3)o2)c(Br)c1`, the Potency is reported as inconclusive: 20 µM [inhibitor, full curve].
With `CSCC[C@H](NS(=O)(=O)c1ccc(C(C)=O)cc1)c1nnc2ccccn12` the Potency was active: 56.2 µM.
For `C[C@H](CCCC/C=C/C(=O)O)O[C@@H]1O[C@@H](C)[C@H](O)C[C@H]1O`, the Potency was inconclusive: 100 µM [inhibitor, single point].
In the case of `COc1ccc(S(=O)(=O)N2CCOCC2)cc1NC(=O)Cc1coc2cc(C)c(C)cc12`, the “activity change, negative = inhibition” value is reported as inactive: -15.2%.
With `Cc1nc2c(n1C1CCCCC1)C(=O)c1ccccc1C2=O` the Potency was inconclusive: 79.4 µM [inhibitor, single point].
For `CC1(C(O)(C#CC[N+]2(C)CCCCC2)c2ccccc2)CCCC1` (centres undefined), the Potency was inconclusive: 79.4 µM [inhibitor, single point].
With `CC[n+]1ccc(C[n+]2ccccc2)c2ccccc21` the Potency was active: 10 µM.
With `O=c1cc(-c2ccc(O)cc2)oc2cc(O)c(C3OC(CO)C(O)C(O)C3O)c(O)c12` (centres undefined) the Potency was inconclusive: 89.1 µM [inhibitor, single point].
For `CN(Cc1ccccc1)Cc1nc2scc(-c3ccccc3)c2c(=O)[nH]1`, the Potency was inconclusive: 28.2 µM [inhibitor, full curve].
`O=S(=O)(c1ccc(Nc2ccc(-c3ccc4c(c3)OCCO4)nn2)cc1)N1CCCC1` was tested, and the Potency was inconclusive: 89.1 µM [inhibitor, single point].
In the case of `COc1ccc2cc(/C=C3\SC(=S)NC3=O)c(N3CCOCC3)nc2c1`, the Potency is reported as inconclusive: 0.794 µM [inhibitor, full curve, poor fit].
For `C(=N\Nc1nc(-c2ccccc2)cs1)/c1cccs1`, the Potency was inconclusive: 39.8 µM [inhibitor, partial curve].
`CCCCN(C(=O)CCCc1nc2ccccc2c(=O)[nH]1)c1c(N)n(CC(C)C)c(=O)[nH]c1=O` was tested, and the “activity change, negative = inhibition” value was inactive: 29%.
In the case of `COc1ccccc1C(c1c(N)n(C)c(=O)n(C)c1=O)C(C)[N+](=O)[O-]` (centres undefined), the Potency is reported as inconclusive: 79.4 µM [inhibitor, single point].
`N#CC1=C(SCC(=O)c2ccccc2)NC2=C(C(=O)CCC2)C1c1ccco1` (centres undefined) was tested, and the Potency was inconclusive: 39.8 µM [inhibitor, full curve].
`CC(=O)C1=C(O)C(=O)N(Cc2ccco2)C1c1ccccc1F` (centres undefined) was tested, and the “activity change, negative = inhibition” value was inactive: -32.6%.
In the case of `CCOC(=O)c1cc(OC(=O)c2cccnc2)n(-c2ccccc2)n1`, the Potency is reported as inconclusive: 89.1 µM [inhibitor, single point].
With `COc1cccc2cc(C(=O)NCCc3c(C)[nH]c4ccc(Br)cc34)c(=O)oc12` the Potency was inconclusive: 89.1 µM [inhibitor, single point].
With `Cc1nc2scc(C)n2c(=O)c1S(=O)(=O)Nc1ccc(N2CCOCC2)cc1` the Potency was inconclusive: 79.4 µM [inhibitor, single point].
For `Cc1ccc(-n2ncc(C(=O)Nc3ccc4c(c3)OCO4)c2C2CCN(C(=O)OC(C)(C)C)CC2)cc1`, the Potency was inconclusive: 15.8 µM [inhibitor, partial curve].
In the case of `COc1ccc(NC(=S)N(CCc2c(C)[nH]c3ccc(C)cc23)Cc2ccco2)cc1`, the Potency is reported as inconclusive: 39.8 µM [inhibitor, partial curve].
For `COc1ccc(/C=C(/NC(=O)c2ccc(OC)c(OC)c2)C(=O)NCCCn2ccnc2)cc1`, the “activity change, negative = inhibition” value was inactive: -10.6%.
With `NC(=O)CC[C@@H]1NC(=O)[C@H](CO)NC(=O)c2cc([N+](=O)[O-])cc(I)c2NCC[C@@H](C(N)=O)NC(=O)[C@H](Cc2ccc(O)cc2)NC1=O` the Potency was active: 56.2 µM.
For `O=c1c(/C=N/N2CCOCC2)c(C(F)(F)F)[nH]n1-c1ccccc1`, the “activity change, negative = inhibition” value was inactive: -34.6%.
`COc1ccc(C2=NN(CN3C(=O)C(=O)c4ccccc43)C(c3ccc(OC)cc3)C2)cc1` (centres undefined) was tested, and the Potency was inconclusive: 8.91 µM [inhibitor, full curve].
In the case of `Cc1cc(N2CCOCC2)cc(C)[n+]1[O-]`, the Potency is reported as inconclusive: 79.4 µM [inhibitor, partial curve].
In the case of `COc1cccc(N2CC34C=CC(O3)C(C(=O)O)C4C2=O)c1` (centres undefined), the Potency is reported as inconclusive: 79.4 µM [inhibitor, single point].
`Oc1cccc2c(-c3nn[nH]n3)ccnc12` was tested, and the Potency was active: 1.58 µM and active: 3.16 µM.
`CC1(C)C2CCC(C2)C1(C)NC(=O)CN1CCOCC1` (centres undefined) was tested, and the Potency was active: 50.1 µM.
With `CC(=O)Nc1nc(N2C(=O)c3ccccc3C2=O)n(-c2ccccc2)n1` the Potency was inconclusive: 89.1 µM [inhibitor, single point].
In the case of `O=[N+]([O-])c1ccccc1CN1CCN(c2ncccn2)CC1`, the Potency is reported as active: 50.1 µM.
With `Brc1ccc(CN2CCN(c3ccccc3)CC2)o1` the Potency was active: 56.2 µM.
In the case of `CC(NC(=O)c1cc([N+](=O)[O-])cc([N+](=O)[O-])c1)C1CC2CCC1C2` (centres undefined), the Potency is reported as inconclusive: 89.1 µM [inhibitor, partial curve].
With `CCc1c(C#N)c(SCc2c(C)noc2C)nc2c1C(=O)CC(C)(C)C2` the “activity change, negative = inhibition” value was inactive: 4.39%.
With `COc1cccc(/C=N/N2CCN(c3ccncc3S(=O)(=O)N3CCCCC3)CC2)c1` the Potency was active: 39.8 µM.
`Cc1sc2c(c1C)c(=O)n(-c1cccc(C(F)(F)F)c1)c(=O)n2Cc1ccc(F)cc1` was tested, and the “activity change, negative = inhibition” value was inactive: -2.39%.
For `COc1ccc(C(=O)NC(=S)N(C)C2CCCCC2)cc1Br`, the Potency was inconclusive: 12.6 µM [inhibitor, full curve].
In the case of `Cc1ccc2[nH]c3c(c2c1)CN(C(=O)CN1CCN(c2ccccc2)CC1)CC3`, the Potency is reported as inconclusive: 31.6 µM [inhibitor, single point].
For `COCCNC(=O)c1ccc2c3n(nc2c1)-c1ccccc1CO3`, the “activity change, negative = inhibition” value was inactive: 10%.
`CCOC(=O)C1C(=O)CC(C)(O)C(C(=O)OCC)C1c1ccco1` (centres undefined) was tested, and the “activity change, negative = inhibition” value was inactive: 9.18%.
With `S=C(NCCc1ccccc1)NCc1cccc(Cl)c1` the Potency was inconclusive: 31.6 µM [inhibitor, partial curve].
`O=C(O)CCn1cc(/C=C/C(=O)c2ccc(Cl)cc2)c(-c2ccc(Br)cc2)n1` was tested, and the “activity change, negative = inhibition” value was inactive: -34.9%.
In the case of `Cc1ccc(S(=O)(=O)Nc2nc3ccccc3nc2NCc2ccco2)cc1`, the “activity change, negative = inhibition” value is reported as inactive: -7.99%.
In the case of `COc1cc(/C=C/C(=O)c2c(O)cc(C)oc2=O)cc(OC)c1O`, the Potency is reported as inconclusive: 50.1 µM [inhibitor, partial curve].
`COc1ccc(C(CC(=O)NCc2ccccc2)N2Cc3ccccc3C2=O)cc1` (centres undefined) was tested, and the “activity change, negative = inhibition” value was inactive: 1.5%.
In the case of `Cc1[nH]c2ccccc2c1SCc1nnc(SCc2ccc(Cl)cc2)n1C`, the Potency is reported as inconclusive: 28.2 µM [inhibitor, full curve].
With `CCc1ccc(OCC2Cn3c(nc4c3c(=O)[nH]c(=O)n4C)O2)cc1` (centres undefined) the Potency was inconclusive: 89.1 µM [inhibitor, single point].
In the case of `C=CCc1ccccc1OCC(O)CN1CCN(c2ccccc2)CC1` (centres undefined), the Potency is reported as active: 50.1 µM.
`CCn1c(=O)n(CC)c2cc(N3CCCCC3)c(NC(=O)Nc3ccccc3C(F)(F)F)cc21` was tested, and the Potency was inconclusive: 28.2 µM [inhibitor, full curve, poor fit].
% is set by controls: 0 for no effect and ±100 for the full control effect; potency is the fitted concentration of half-maximal effect; tags give direction and shape of the fitted curve.
Note: nearly all actives have a fitted effect of over 60% in size.
